Data reported in the RNAGym collection of RNA variant scans (doi:10.7554/elife.90254).
The source gives no read counts; variants with many changes may rest on few reads.

B1: LINE1-mini (parent)
chain: GGCAGAGCUCAACACAGCGUGGCAAAGUGGCUGUGGCUAGACUGCC

Variants of: B1
Assay: self-cleavage, relative activity (ratio to wild type); higher = more cleavage; in vitro, sequencing; the parent is a self-cleaving ribozyme

| Variant | self-cleavage |
| --- | --- |
| A6U G30A U32A G33C | 0.03 |
| A6G G21A G29A U34G G40A | 0.01 |
| G7A A12U G30C A39U G40C G44C | 0.2 |
| A6G C37G C42U C46A | 0.2 |
| A6G G21U A24G C45A | 0.04 |
| A6U C8A U20C C42U | 0.04 |
| A6G G27U C46U | 0.2 |
| A6U G33C U34C | 0.01 |
| A6U G19A U38C | 0.49 |
| A6U G29C G35A C45U | 0.94 |
| G7A C15G C18A G35U U38A | 0.05 |
| A6U C8U C18A | 0.06 |
| G7A C8A C10A U43C | 0.02 |
| A6U G7U G22A G33C | 0.1 |
| A6G C23U C37U | 0.06 |
| A6G G17U C23U G36A A41U | 0.17 |
| G7A C8A C10A G33A C37G C45U | 0.02 |
| A6U G17U G19U U20G A25U | 0.12 |
| A6U U20G U28A | 0.28 |
| A6U C10A A25U | 0.07 |
| A6U A16U G17C G29U | 0.07 |

| Variant | self-cleavage |
| --- | --- |
| A6G G19A A26G C45G | 0.05 |
| A6U G21U C37A C46G | 0.12 |
| A6U C8G C31G C45A | 0.04 |
| A6U G7C U34A A39C | 0.33 |
| G7A A11U C46G | 0.01 |
| A6U A12G C18A G21A G22C C37U G40C | 0.03 |
| G7A A11U G33U C42A | 0.06 |
| G7A C8A U20A C45G | 0.19 |
| A6G G17C G36U | 0.04 |
| A6U C10G C13A | 0.07 |
| A6U G21U G29C U34G U38A | 0.05 |
| A6G U20G C45A | 0.12 |
| A6U C13G C18A G21U U28G | 0.04 |
| A6G G30U G33U | 0.03 |
| A6G U20G A39C | 0 |
| G7A C10U U20A | 0.02 |
| A6G C23A A39U G40A G44U C45G | 0.08 |
| A6U U9A C46U | 0.16 |
| A6G U28A G30U | 0.08 |
| A6U G7U G21C C23G G29C G33U C37G | 0.01 |
| G7A A24G G40C | 0.02 |

| Variant | self-cleavage |
| --- | --- |
| G7A C8U G27A U28C C45A | 0.73 |
| G7A A16U G35C | 0.05 |
| A6G U38A G40C | 0.16 |
| A6G C23G C37G | 0.01 |
| A6U U9G G17C A26C C45U | 0.02 |
| A6U C15G G17U C18U G40U | 0.06 |
| G7A C10G G40U | 0.01 |
| A6U A26U G30U | 2.71 |
| A6G U9A A11G G17A G19U A24C U32G G33C | 0.01 |
| A6U G22U C23A | 0.43 |
| A6G U9G A12C U20G A25U G35U C37U | 0 |
| G7A A16G A24G | 0.16 |
| A6U A14G G33C | 0.07 |
| A6U U43A G44C C46U | 0.24 |
| A6G U20A C37U | 0.04 |
| A6G G7C A26C | 0.08 |
| A6G C18U A25C | 0.04 |
| G7A A12G G30U U32A | 0.39 |
| A6U C10U C13U U28G G29A U34G G36C U43A G44U | 0.01 |
| G7A C8G C23U U32C U34C C37A | 0.06 |
| A6U A11G U38A | 0.02 |

| Variant | self-cleavage |
| --- | --- |
| A6G U20A U32C C37G U43G | 0.03 |
| G7A A25U U43G G44U C45A | 0.12 |
| A6U G36U U38G | 0.01 |
| A6U U28A G30A C45U | 0.19 |
| G7A A12C C13U G19A C42A | 0.06 |
| A6U G21A G36C | 0.17 |
| A6U C31A C42G | 0.02 |
| A6G C31G U43A | 0.03 |
| G7A A24G G30A | 0.37 |
| A6U G19A C42G | 0.11 |
| A6U U28C U34A G35A | 0.1 |
| A6U G27A U28G A39G | 0.06 |
| A6U A12G C13A | 0.1 |
| A6U A12C C37G | 0 |
| A6U C10G G17U U34C | 0 |
| A6U C13A G19A C31U | 0.05 |
| A6U C10G U28A | 0.01 |
| G7A C10G G21A U28C | 0.03 |
| G7A C13U U43C | 1.42 |
| A6G U9C C15G U28C A41C | 0 |
| G7A C10G A12G A16C | 0.02 |
